{
  "source": "patent US9969812B2",
  "about": "“Anti human Notch4 antibody” (Eisai R&D Management Co., Ltd., priority 2015, dated 2018)",
  "molecules": {"B1": {"name": "Antibody C: humanized anti-human Notch4 antibody, heavy chain variable region HK2, light chain variable region L4, C-terminal Lys deleted (antibody)", "heavy": "EVQLVESGGGLVQPGGSLRLSCAASGFTFSSYGMSWVRQAPGKGLELVSTINSNGGRTYYPDSVKGRFTISRDNSKNTLYLQMGSLRAEDMAVYYCARDQGFAYWGQGTLVTVSSASTKGPSVFPLAPCSRSTSESTAALGCLVKDYFPEPVTVSWNSGALTSGVHTFPAVLQSSGLYSLSSVVTVPSSNFGTQTYTCNVDHKPSNTKVDKTVERKCCVECPPCPAPPAAAPSVFLFPPKPKDTLMISRTPEVTCVVVDVSHEDPEVQFNWYVDGVEVHNAKTKPREEQFNSTFRVVSVLTVVHQDWLNGKEYKCKVSNKGLPAPIEKTISKTKGQPREPQVYTLPPSREEMTKNQVSLTCLVKGFYPSDIAVEWESNGQPENNYKTTPPMLDSDGSFFLYSKLTVDKSRWQQGNVFSCSVMHEALHNHYTQKSLSLSPG", "light": "EIVMTQSPATLSVSPGERATLSCKASQDVGTAVAWYQQKPGQAPRLLIYWASTRHTGIPARFSGSGSGTEFTLTISSLQSEDFAVYFCQQYSSYPWTFGQGTKVEIKRTVAAPSVFIFPPSDEQLKSGTASVVCLLNNFYPREAKVQWKVDNALQSGNSQESVTEQDSKDSTYSLSSTLTLSKADYEKHKVYACEVTHQGLSSPVTKSFNRGEC"}, "B2": {"name": "Antibody E: humanized anti-human Notch4 antibody, heavy chain variable region HK2, light chain variable region L6, C-terminal Lys deleted (antibody)", "heavy": "EVQLVESGGGLVQPGGSLRLSCAASGFTFSSYGMSWVRQAPGKGLELVSTINSNGGRTYYPDSVKGRFTISRDNSKNTLYLQMGSLRAEDMAVYYCARDQGFAYWGQGTLVTVSSASTKGPSVFPLAPCSRSTSESTAALGCLVKDYFPEPVTVSWNSGALTSGVHTFPAVLQSSGLYSLSSVVTVPSSNFGTQTYTCNVDHKPSNTKVDKTVERKCCVECPPCPAPPAAAPSVFLFPPKPKDTLMISRTPEVTCVVVDVSHEDPEVQFNWYVDGVEVHNAKTKPREEQFNSTFRVVSVLTVVHQDWLNGKEYKCKVSNKGLPAPIEKTISKTKGQPREPQVYTLPPSREEMTKNQVSLTCLVKGFYPSDIAVEWESNGQPENNYKTTPPMLDSDGSFFLYSKLTVDKSRWQQGNVFSCSVMHEALHNHYTQKSLSLSPG", "light": "EIVMTQSPATLSVSPGERATLSCKASQDVGTAVAWYQQKPGQSPRLLIYWASTRHTGIPARFSGSGSGTEFTLTISSLQSEDFAVYFCQQYSSYPWTFGQGTKVEIKRTVAAPSVFIFPPSDEQLKSGTASVVCLLNNFYPREAKVQWKVDNALQSGNSQESVTEQDSKDSTYSLSSTLTLSKADYEKHKVYACEVTHQGLSSPVTKSFNRGEC"}, "B3": {"name": "Antibody F: humanized anti-human Notch4 antibody, heavy chain variable region HA2, light chain variable region L3, C-terminal Lys deleted (antibody)", "heavy": "EVQLVESGGGLVQPGGSLRLSCAASGFTFSSYGMSWVRQAPGKGLELVSTINSNGGRTYYANSVKGRFTISRDNSKNTLYLQMGSLRAEDMAVYYCARDQGFAYWGQGTLVTVSSASTKGPSVFPLAPCSRSTSESTAALGCLVKDYFPEPVTVSWNSGALTSGVHTFPAVLQSSGLYSLSSVVTVPSSNFGTQTYTCNVDHKPSNTKVDKTVERKCCVECPPCPAPPAAAPSVFLFPPKPKDTLMISRTPEVTCVVVDVSHEDPEVQFNWYVDGVEVHNAKTKPREEQFNSTFRVVSVLTVVHQDWLNGKEYKCKVSNKGLPAPIEKTISKTKGQPREPQVYTLPPSREEMTKNQVSLTCLVKGFYPSDIAVEWESNGQPENNYKTTPPMLDSDGSFFLYSKLTVDKSRWQQGNVFSCSVMHEALHNHYTQKSLSLSPG", "light": "EIVMTQSPATLSVSPGERATLSCKASQDVGTAVAWYQQKPGQAPRLLIYWASTRHTGIPARFSGSGSGTEFTLTISSLQSEDFAVYYCQQYSSYPWTFGQGTKVEIKRTVAAPSVFIFPPSDEQLKSGTASVVCLLNNFYPREAKVQWKVDNALQSGNSQESVTEQDSKDSTYSLSSTLTLSKADYEKHKVYACEVTHQGLSSPVTKSFNRGEC"}, "B4": {"name": "Antibody G: humanized anti-human Notch4 antibody, heavy chain variable region HK3, light chain variable region L4, C-terminal Lys deleted (antibody)", "heavy": "EVQLVESGGGLVQPGGSLRLSCAASGFTFSSYGMSWVRQAPGKGLELVATINSNGGRTYYPDSVKGRFTISRDNSKNTLYLQMGSLKAEDMAVYYCARDQGFAYWGQGTLVTVSSASTKGPSVFPLAPCSRSTSESTAALGCLVKDYFPEPVTVSWNSGALTSGVHTFPAVLQSSGLYSLSSVVTVPSSNFGTQTYTCNVDHKPSNTKVDKTVERKCCVECPPCPAPPAAAPSVFLFPPKPKDTLMISRTPEVTCVVVDVSHEDPEVQFNWYVDGVEVHNAKTKPREEQFNSTFRVVSVLTVVHQDWLNGKEYKCKVSNKGLPAPIEKTISKTKGQPREPQVYTLPPSREEMTKNQVSLTCLVKGFYPSDIAVEWESNGQPENNYKTTPPMLDSDGSFFLYSKLTVDKSRWQQGNVFSCSVMHEALHNHYTQKSLSLSPG", "light": "EIVMTQSPATLSVSPGERATLSCKASQDVGTAVAWYQQKPGQAPRLLIYWASTRHTGIPARFSGSGSGTEFTLTISSLQSEDFAVYFCQQYSSYPWTFGQGTKVEIKRTVAAPSVFIFPPSDEQLKSGTASVVCLLNNFYPREAKVQWKVDNALQSGNSQESVTEQDSKDSTYSLSSTLTLSKADYEKHKVYACEVTHQGLSSPVTKSFNRGEC"}, "B5": {"name": "Antibody A: humanized anti-human Notch4 antibody, heavy chain variable region HK2, light chain variable region L3, C-terminal Lys deleted (antibody)", "heavy": "EVQLVESGGGLVQPGGSLRLSCAASGFTFSSYGMSWVRQAPGKGLELVSTINSNGGRTYYPDSVKGRFTISRDNSKNTLYLQMGSLRAEDMAVYYCARDQGFAYWGQGTLVTVSSASTKGPSVFPLAPCSRSTSESTAALGCLVKDYFPEPVTVSWNSGALTSGVHTFPAVLQSSGLYSLSSVVTVPSSNFGTQTYTCNVDHKPSNTKVDKTVERKCCVECPPCPAPPAAAPSVFLFPPKPKDTLMISRTPEVTCVVVDVSHEDPEVQFNWYVDGVEVHNAKTKPREEQFNSTFRVVSVLTVVHQDWLNGKEYKCKVSNKGLPAPIEKTISKTKGQPREPQVYTLPPSREEMTKNQVSLTCLVKGFYPSDIAVEWESNGQPENNYKTTPPMLDSDGSFFLYSKLTVDKSRWQQGNVFSCSVMHEALHNHYTQKSLSLSPG", "light": "EIVMTQSPATLSVSPGERATLSCKASQDVGTAVAWYQQKPGQAPRLLIYWASTRHTGIPARFSGSGSGTEFTLTISSLQSEDFAVYYCQQYSSYPWTFGQGTKVEIKRTVAAPSVFIFPPSDEQLKSGTASVVCLLNNFYPREAKVQWKVDNALQSGNSQESVTEQDSKDSTYSLSSTLTLSKADYEKHKVYACEVTHQGLSSPVTKSFNRGEC"}},
  "data": [
    {"molecular_target": "T1, Human Notch4-NRR Fusion Protein (Homo sapiens, UniProt Q99466)", "T1 construct": "Human Notch4-NRR domain Fc fusion proteins were expressed with a CHO cell line; Fc; made in house; host or cells: CHO cell line (antigen captured from culture supernatant)", "T1 sequence (Q99466 1046-1445 limits assumed)": "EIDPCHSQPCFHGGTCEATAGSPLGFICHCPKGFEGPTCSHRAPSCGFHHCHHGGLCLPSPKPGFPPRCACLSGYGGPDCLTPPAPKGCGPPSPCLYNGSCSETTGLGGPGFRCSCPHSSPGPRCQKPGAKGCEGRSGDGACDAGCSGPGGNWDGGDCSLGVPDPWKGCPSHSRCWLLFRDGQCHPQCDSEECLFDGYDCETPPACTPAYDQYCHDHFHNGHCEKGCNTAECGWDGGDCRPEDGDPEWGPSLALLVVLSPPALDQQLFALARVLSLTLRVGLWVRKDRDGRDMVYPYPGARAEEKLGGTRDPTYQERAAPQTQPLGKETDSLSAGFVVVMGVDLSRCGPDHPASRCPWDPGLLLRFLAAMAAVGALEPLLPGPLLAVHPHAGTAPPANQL", "assay": "Kinetic analysis, captured Human Notch4-NRR Fc fusion protein, humanized antibody injected", "assay_type": "binding", "conditions": "Table 30, Human Notch4-NRR Fc fusion", "procedure": "Kinetic analysis of further anti-Notch4 inhibitory humanized antibodies was carried out as follows. Human Notch4-NRR domain Fc fusion proteins were expressed with a CHO cell line. The antigen in the culture supernatant was captured by the anti-human Notch4 antibody fixed on a CM5 sensor chip that recognizes different epitopes of human Notch4. The humanized anti-human Notch4 antibody was then injected onto the sensor chip at various concentrations. The interaction and disassociation constants thereof were calculated according to manufacturer's instructions.\nIn the table below, e.g. the description “HK2L3 (Lys-)” means that the heavy chain variable region of the humanized anti-human Notch4 antibody employed in the experiment is the heavy chain variable region of the humanized anti-human Notch4 antibody heavy chain HK2 in Example 1, light chain variable region is the light chain variable region of the humanized anti-human Notch4 antibody light chain L3 in Example 1, and lysine (Lys) located at the C-terminal of the heavy chain of a common human antibody is deleted in this antibody. Those without the description “(Lys-)” mean that Lys located at the C-terminal of the heavy chain of the human antibody is not deleted.", "units": {"Rmax1 (RU)": "RU", "ka": "M⁻¹ s⁻¹", "kd": "s⁻¹"}, "values": [
      {"molecule": "B1", "Rmax1 (RU)": 35.9, "ka": "1.91e+06", "kd": 0.00106},
      {"molecule": "B2", "Rmax1 (RU)": 28.9, "ka": "2.23e+06", "kd": 0.00115},
      {"molecule": "B3", "Rmax1 (RU)": 20.2, "ka": "1.55e+06", "kd": 0.00136},
      {"molecule": "B4", "Rmax1 (RU)": 29.2, "ka": "1.78e+06", "kd": 0.00111},
      {"molecule": "B5", "Rmax1 (RU)": 33.4, "ka": "1.62e+06", "kd": 0.000889}
    ]}
  ]
}
